The labels stand for the following.
B1: CPEB3 Ribozyme (parent)
chain: UAACAGGGGGCCACAGCAGAAGCGUUCACGUCGCAGCCCCUGUCAGAUUCUGGUGAAUCUGCGAAUUCUGCUGUAUAUCUC

The source gives no read counts; variants with many changes may rest on few reads.

The variants in this data set derive from B1. Kind of data set: self-cleavage, relative activity (ratio to wild type); higher = more cleavage; in vitro, sequencing. In outline:
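Relative activity was defined as the cleaved/total read fraction for a variant divided by the same fraction for the unmutated ribozyme. CPEB3 self-cleaving ribozyme libraries were made by rounds of error-prone PCR, barcoded, and transcribed in vitro with T7 RNA polymerase for 5 hours at 37°C, and cleavage ran through transcription plus a 15 min DNase I step before EDTA. Illumina sequencing of template-switched reverse transcripts gave the reads, and DNA sequencing mapped the barcodes. Averages come from three batches, using variants with at least 5 reads.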
For A5G G6A U48C U49G A65G U78C U80A, the self-cleavage was determined as 0.15.

Regarding A5G C27A C38A U80A, the self-cleavage came out at 0.23.

For the variant A5G C29G A64G, the self-cleavage is 0.15.

On to A5G C32A C37A, for which the self-cleavage was determined as 0.47.

As to A5G G10A C14U U25A A65G U80C, the self-cleavage stood at 0.47.

Regarding A5G A28U A35U C40A U43C U67A U69C, the self-cleavage is 0.04.

Consider A5G G7U A57G A64C U69G U74G, for which the self-cleavage amounted to 0.13.

Take A5G C17U U31C A47G U72A: the self-cleavage worked out at 0.06.

Turning to A5G G8C U25A A28G U43C U80C, the self-cleavage is 0.12.

Turning to A5G C37A C44U A64U A75U, the self-cleavage was 0.

In the case of A5G C11G U74C C81A, the self-cleavage was 1.14.

As for A5G U25C A56G A57G, the self-cleavage came out at 0.04.

On to A5G C27A U51A U69C A75U, for which the self-cleavage came out at 0.22.

As to A5G C29U A75U U76A, the self-cleavage stood at 0.56.

A5G C11G C39G U60A U67A U69A: the self-cleavage was 0.16.

Consider A5G C23U A35G U60C A64U U67C U78C, for which the self-cleavage turned out to be 0.1.

Consider A5G A28U A35G A64G U78C, for which the self-cleavage was found to be 1.03.

As to A5G A35G U60A U74G, the self-cleavage is 0.97.

On to A5G C29U G30C G52A U72C U74A, for which the self-cleavage stood at 0.09.

On to A5G G10A C29U G30C U72C, for which the self-cleavage came out at 0.07.

For the variant A5G G6U A18U U25C C39U, the self-cleavage was found to be 0.

For A5G A35G G63A, the self-cleavage is 1.11.

Take A5G G9A U58C U74C: the self-cleavage is 0.49.

For A5G C27U A35G A65C, the self-cleavage was found to be 0.19.

As for A5G C17U U80A, the self-cleavage amounted to 0.32.

Regarding A5G G46A G55A U58A U74C, the self-cleavage was determined as 0.3.

In the case of A5G G42C U43C C62U A64U U69C, the self-cleavage amounted to 0.12.

As for A5G C17U U25C C40A U54A U60A A64G, the self-cleavage was found to be 0.12.

For A5G G6A U25C U80C, the self-cleavage came out at 0.09.

With A5G C29U G52C A56G, the self-cleavage is 0.41.

For the variant A5G A28U G36A U54C, the self-cleavage worked out at 0.33.

For A5G C32A G52A U60C A65G, the self-cleavage is 0.12.

In the case of A5G A56G A64G, the self-cleavage amounted to 0.49.

A5G G8U U25C U31C: the self-cleavage was found to be 0.3.

For the variant A5G A56U U58A U60C U67C, the self-cleavage came to 0.08.

Take A5G G9A U25C A35U U51A: the self-cleavage was determined as 0.05.

As to A5G A64G U66A U67C U78A, the self-cleavage was found to be 0.13.

On to A5G U25A C32A U60C C79U, for which the self-cleavage is 0.06.

Take A5G A35G U43C A56U: the self-cleavage came to 0.38.

For the variant A5G G8A U43A A45U, the self-cleavage worked out at 0.24.

As to A5G G19A A35U, the self-cleavage came to 0.63.

For A5G G53A A65G, the self-cleavage came to 0.23.

On to A5G G53U A57G A65G C79U, for which the self-cleavage is 0.18.

As to A5G C17G A20G C32G U60C, the self-cleavage is 0.05.

Take A5G A28U A65G: the self-cleavage amounted to 0.33.

For the variant A5G G24A G33U G36A U43C U58A U66C, the self-cleavage stood at 0.05.

As for A5G C12U G52U A65G U69A, the self-cleavage was 0.08.

On to A5G G10C U43A A45G U48C, for which the self-cleavage was found to be 0.32.

With A5G A56G A64G U72A U80C, the self-cleavage came to 0.65.

Take A5G A56G U74C: the self-cleavage was determined as 1.07.

In the case of A5G U25A C40U, the self-cleavage came out at 0.13.

For the variant A5G C14U U43C A57G U66A U78C, the self-cleavage is 0.08.

As to A5G C14U U26C C37U A56U U78C, the self-cleavage turned out to be 0.07.

Regarding A5G A45U U51A U58C U74A, the self-cleavage is 0.27.

Consider A5G C12U A28G, for which the self-cleavage came out at 0.7.

With A5G G8A U26A A47G A77G, the self-cleavage was 0.05.

With A5G C23A A35G U49C U67C, the self-cleavage stood at 0.13.

Consider A5G C14U A15U U31C U51C C68A, for which the self-cleavage stood at 0.26.

Turning to A5G C11U A45G, the self-cleavage was 0.49.

For A5G G10A C23A C39A G52C U69A, the self-cleavage came to 0.06.

As to A5G G6A G33A A35G U74C U80C, the self-cleavage came to 0.24.

Turning to A5G A28U U31A U41A C50A, the self-cleavage came to 0.08.

As to A5G C62U U72C A75G, the self-cleavage amounted to 0.19.

For A5G A45U U69C, the self-cleavage is 0.18.

Regarding A5G G7C G24A, the self-cleavage came to 0.47.

With A5G C11A A21G A45C U49A, the self-cleavage was 0.08.

On to A5G G16A U43C U76A U80A, for which the self-cleavage is 0.08.

A5G A57G U80C: the self-cleavage was 0.77.

With A5G G9A A21U A35U C39A U60A U74C, the self-cleavage is 0.05.

As for A5G C23U U66C, the self-cleavage was 0.08.

A5G G30C A45G A57G U72C: the self-cleavage amounted to 0.07.

A5G G30C A45G U51A U74A: the self-cleavage is 0.07.

In the case of A5G A45C U67C, the self-cleavage is 0.09.

As to A5G A35U U58G U80A, the self-cleavage amounted to 0.13.

On to A5G A47G U48C C81U, for which the self-cleavage is 0.38.

With A5G A28U A35G, the self-cleavage was found to be 1.26.

For A5G C17G A18G, the self-cleavage was 0.41.

On to A5G G9A A18U A35U U69C, for which the self-cleavage stood at 0.07.

For the variant A5G A45U U54C U60A, the self-cleavage came out at 0.69.

A5G C17G A28G U78C: the self-cleavage worked out at 0.36.

On to A5G G8U A56U C68A A75U, for which the self-cleavage was 0.07.

As for A5G G9A U48A U69C C71U U80C, the self-cleavage turned out to be 0.06.

As to A5G A35G A45C U48C U51A, the self-cleavage was determined as 0.3.

On to A5G G6A G7A, for which the self-cleavage came out at 0.43.

Source of the values: the RNAGym collection of RNA variant scans (doi:10.1093/nar/gkz1192).
